Structures can show the parent of a compound that is named as a salt. ± gives the standard deviation of the averaged measurements. In all, about 1,300 compounds were measured (“normalised cell viability”: median about 1, lowest 2% from about 0.15 on). The list shows a part of the results.

The values that follow come from the supplement of paper PMC6609913.

This assay deals with V-C8 + BRCA2 (BRCA2-proficient hamster cells). The assay can be described thus: normalised cell viability (fraction of plate median); higher = more viable cells (less toxic). Particulars: 5 µM. In outline: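 In two screens, library drugs at 5 μM were given for 3 days (screen 1) or 6 days (screen 2) to hamster V-C8 cells without BRCA2 and V-C8 cells with BRCA2 restored, seeded 24 h earlier in 96-well plates. A resazurin assay gave the cell viability readout, expressed as modified robust per cent of sample against the plate median, with triplicate wells averaged.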

As for `CC(C)(C(=O)O)c1ccc(C(O)CCCN2CCC(C(O)(c3ccccc3)c3ccccc3)CC2)cc1` (centres undefined) [Fexofenadine HCl], the normalised cell viability was 1.02 ± 0.051 (treatment time: 3 days) and 1.04 ± 0.026 (treatment time: 6 days).
Consider `CN(C)CCCN1c2ccccc2Sc2ccccc21` [Promazine hydrochloride], for which the normalised cell viability (treatment time: 3 days) was 1.05 ± 0.046 and the normalised cell viability (treatment time: 6 days) worked out at 0.665 ± 0.067.
As for `Cc1cc(C(C)(C)C)c(O)c(C)c1CC1=NCCN1` [Oxymetazoline hydrochloride], the normalised cell viability runs as follows: (treatment time: 3 days) 1.02 ± 0.063; (treatment time: 6 days) 0.969 ± 0.033.
Regarding `NS(=O)(=O)c1cc(C(=O)O)cc(N2CCCC2)c1Oc1ccccc1` [Piretanide], the normalised cell viability by setting is: (treatment time: 3 days) 0.989 ± 0.054; (treatment time: 6 days) 0.982 ± 0.098.
Regarding `CC(=O)NCCCS(=O)(=O)O` [Acamprosate calcium], the normalised cell viability runs as follows: (treatment time: 3 days) 1.08 ± 0.015; (treatment time: 6 days) 1.12 ± 0.068.
In the same order, the values of `CCOC(=O)O[C@]1(C(=O)COC(=O)CC)CC[C@H]2[C@@H]3CCC4=CC(=O)C=C[C@]4(C)[C@H]3[C@@H](O)C[C@@]21C` [Prednicarbate] are 0.878 ± 0.049 and 0.96 ± 0.079.
As for `CC(C)(C)NCC(O)COc1cccc2c1CCC(=O)N2` (centres undefined) [Carteolol hydrochloride], the normalised cell viability runs as follows: (treatment time: 3 days) 1.06 ± 0.052; (treatment time: 6 days) 1.06 ± 0.044.
For `C=C1c2c(Cl)ccc(O)c2C(=O)C2=C(O)[C@]3(O)C(=O)C(C(N)=O)=C(O)[C@@H](N(C)C)[C@@H]3[C@@H](O)[C@H]12.O=C(O)c1cc(S(=O)(=O)O)ccc1O` [Meclocycline sulfosalicylate], the normalised cell viability is, setting by setting: (treatment time: 3 days) 1.02 ± 0.022; (treatment time: 6 days) 0.983 ± 0.025.
`Nc1nc2ccc(OC(F)(F)F)cc2s1` [Riluzole hydrochloride]: the normalised cell viability was 0.998 ± 0.051 (treatment time: 3 days) and 0.948 ± 0.057 (treatment time: 6 days).
Consider `CN1CCC(=C2c3ccccc3CCc3cccnc32)CC1` [Azatadine maleate], for which the normalised cell viability is 1.03 ± 0.07 (treatment time: 3 days) and 1.07 ± 0.096 (treatment time: 6 days).
Turning to `COc1ccc2c(c1)c(CC(=O)O)c(C)n2C(=O)c1ccc(Cl)cc1` [Indomethacin], the normalised cell viability by setting is: (treatment time: 3 days) 1 ± 0.019; (treatment time: 6 days) 1.01 ± 0.06.
In the same order, the values of `C(=C\c1ccccc1)/CN1CCN(C(c2ccccc2)c2ccccc2)CC1` [Cinnarizine] are 1.03 ± 0.036 and 1.02 ± 0.082.
In the case of `O=C(C1CCCCC1)N1CC(=O)N2CCc3ccccc3C2C1` (centres undefined) [Praziquantel], the normalised cell viability runs as follows: (treatment time: 3 days) 1.12 ± 0.04; (treatment time: 6 days) 1.03 ± 0.093.
Regarding `CC(=O)c1ccc2c(c1)N(CCCN(C)C)c1ccccc1S2` [Acetopromazine maleate salt], the normalised cell viability was 1.06 ± 0.031 (treatment time: 3 days) and 1.04 ± 0.033 (treatment time: 6 days).
For the compound `CN(C)CCOC(C)(c1ccccc1)c1ccccn1` (centres undefined) [Doxylamine succinate], the normalised cell viability (treatment time: 3 days) amounted to 0.988 ± 0.049 and the normalised cell viability (treatment time: 6 days) worked out at 1.02 ± 0.0094.
Take `Oc1c(I)cc(Cl)c2cccnc12` [Clioquinol]: the normalised cell viability reads like this: (treatment time: 3 days) 0.953 ± 0.097; (treatment time: 6 days) 0.984 ± 0.061.
Regarding `CC(C)(C#N)c1cc(Cn2cncn2)cc(C(C)(C)C#N)c1` [Anastrozole], the normalised cell viability stood at 0.967 ± 0.03 (treatment time: 3 days) and 1.03 ± 0.029 (treatment time: 6 days).
`CN(C(=O)C(Cl)Cl)c1ccc(OC(=O)c2ccco2)cc1` [Diloxanide furoate]: the normalised cell viability was 1.01 ± 0.039 (treatment time: 3 days) and 1.04 ± 0.042 (treatment time: 6 days).
Consider `Nc1ccn([C@H]2CC[C@@H](CO)O2)c(=O)n1` [Zalcitabine], for which the normalised cell viability is 0.965 ± 0.091 (treatment time: 3 days) and 1.07 ± 0.025 (treatment time: 6 days).
In the same order, the values of `CN1CCN(CCCN2c3ccccc3Sc3ccc(C(F)(F)F)cc32)CC1` [Trifluoperazine dihydrochloride] are 0.728 ± 0.0074 and 0.71 ± 0.016.
As for `CN(C)CCN1C(=O)c2ccccc2N(C)c2ccccc21` [Dibenzepine hydrochloride], the normalised cell viability (treatment time: 3 days) was 0.778 ± 0.043 and the normalised cell viability (treatment time: 6 days) was determined as 0.83 ± 0.042.
Regarding `COc1ccc(OC)c(C(O)CNC(=O)CN)c1` (centres undefined) [Midodrine hydrochloride], the normalised cell viability by setting is: (treatment time: 3 days) 1.02 ± 0.022; (treatment time: 6 days) 0.9977 ± 0.0095.
For the compound `CC[C@H](C)[C@H](N)C1=N[C@H](C(=O)N[C@@H](CC(C)C)C(=O)N[C@H](CCC(=O)O)C(=O)N[C@H](C(=O)N[C@H]2CCCCNC(=O)[C@H](CC(N)=O)NC(=O)[C@@H](CC(=O)O)NC(=O)[C@H](Cc3cnc[nH]3)NC(=O)[C@@H](Cc3ccccc3)NC(=O)[C@H]([C@@H](C)CC)NC(=O)[C@@H](CCCN)NC2=O)[C@@H](C)CC)CS1` [Bacitracin], the normalised cell viability (treatment time: 3 days) came out at 1.07 ± 0.076 and the normalised cell viability (treatment time: 6 days) stood at 1.03 ± 0.035.
`Cc1c(N(C)C)c(=O)n(-c2ccccc2)n1C` [Amidopyrine]: the normalised cell viability (treatment time: 3 days) was 0.945 ± 0.04 and the normalised cell viability (treatment time: 6 days) was found to be 0.995 ± 0.063.
`Oc1c(Cl)cc(Cl)c(Cl)c1Cc1c(O)c(Cl)cc(Cl)c1Cl` [Hexachlorophene]: the normalised cell viability is, setting by setting: (treatment time: 3 days) 0.463 ± 0.0083; (treatment time: 6 days) 0.558 ± 0.042.
Take `COc1ccc(/C=C/C(=O)Nc2ccccc2C(=O)O)cc1OC` [Tranilast]: the normalised cell viability is, setting by setting: (treatment time: 3 days) 0.96 ± 0.032; (treatment time: 6 days) 1.05 ± 0.054.
Turning to `CCOC(=O)C1=C(COCCN)NC(C)=C(C(=O)OC)C1c1ccccc1Cl` (centres undefined) [Amlodipine], the normalised cell viability (treatment time: 3 days) worked out at 0.92 ± 0.047 and the normalised cell viability (treatment time: 6 days) turned out to be 0.873 ± 0.033.
Turning to `CN1[C@@H]2CC[C@H]1C[C@@H](OC(=O)c1c[nH]c3ccccc13)C2` [Tropisetron HCl], the normalised cell viability was determined as 1.05 ± 0.12 (treatment time: 3 days) and 1.24 ± 0.074 (treatment time: 6 days).
Take `Cc1cccc(C)c1OCC(C)N` (centres undefined) [Mexiletine hydrochloride]: the normalised cell viability came to 0.978 ± 0.044 (treatment time: 3 days) and 0.928 ± 0.043 (treatment time: 6 days).
In the case of `NC[C@@H]1O[C@H](O[C@H]2[C@@H](O)[C@H](O[C@@H]3[C@@H](O)[C@H](N)C[C@H](N)[C@H]3O[C@H]3O[C@H](CO)[C@@H](O)[C@H](O)[C@H]3N)O[C@@H]2CO)[C@H](N)[C@@H](O)[C@@H]1O` [Paromomycin sulfate], the normalised cell viability is, setting by setting: (treatment time: 3 days) 1.028 ± 0.0087; (treatment time: 6 days) 1.11 ± 0.034.
As for `COc1ccccc1OCC(O)CO` (centres undefined) [Guaifenesin], the normalised cell viability is, setting by setting: (treatment time: 3 days) 1.02 ± 0.045; (treatment time: 6 days) 1.08 ± 0.23.
In the same order, the values of `CC(=O)[C@H]1CC[C@H]2[C@@H]3C=CC4=CC(=O)CC[C@@]4(C)[C@@H]3CC[C@]12C` [Dydrogesterone] are 1.07 ± 0.04 and 1.29 ± 0.038.
